Out of some 120,000 compounds screened, about 5,300 (4.4%) were called active. The inconclusive results got no clear call from the source; some entries with a clear call stand among them for comparison. Calls come from the whole dose curve; as a rule, active = well fitted inhibition curve with a large enough effect; inconclusive = small, poorly fitted or top-dose-only effect; inactive = no such curve, though single readings can be large or run the other way. Potencies beside an inconclusive call are fits to weak or partial responses and may not hold up.
Assay: qHTS Primary assay for Inhibitors of Plasmodium falciparum Dd2 growth in vitro; note: nearly all actives have a fitted effect of over 65% in size;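 for activity, negative = inhibition: plate controls were DMSO vehicle for no effect and reference drug for full effect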
Conditions: P. falciparum Dd2 growth, SYBR Green, 72 h; activity, negative = inhibition: at 28.9 µM (top of the series) unless noted; series mostly up to 28.9 µM
How it was run: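 Infected erythrocytes (Dd2, 0.3% parasitemia, 2.5% hematocrit final) are added to compound in RPMI-1640/Albumax II medium, grown 72 h at 37C in low oxygen, then lysed with saponin/Triton-X containing SYBR Green and read by fluorescence.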
Potency is the fitted concentration of half-maximal effect; tags give direction and shape of the fitted curve.

Row | Structure (SMILES) | Potency | activity, negative = inhibition
1 | CC1=C[C@@H](CNS(=O)(=O)Cc2ccccc2)[C@H](C(C)C)C[C@H]1CC(=O)N1CCN(C)CC1 | inconclusive: 1.41 µM [inhibitor, partial curve, poor fit] | 
2 | COc1ccc(-c2cnc3[nH]cc(CC(=O)NCc4cnccn4)c3c2)cc1 | inconclusive: 2.24 µM [inhibitor, full curve, poor fit] | 
3 | COc1ccc(-c2nc(CN3CCC(CO)CC3)c(C)o2)c2ccccc12 | inconclusive: 7.08 µM [inhibitor, partial curve, poor fit] | 
4 | Cc1ccc(-c2noc(C3CCN(C(=O)CC(C)C)CC3)n2)nn1 | inactive | 
5 | COCCN1CCC(N2CCN(S(=O)(=O)Cc3ccc(F)cc3Cl)CC2)C1=O (stereo unspecified) | inactive | 
6 | CCC(CNC(=O)c1csc2nc(-c3ccccc3Cl)cn12)N(C)C (stereo unspecified) | inconclusive: 17.8 µM [inhibitor, single point] | 
7 | Cc1ccc(-c2cn(C3CCN(C(=O)c4ccc(Cl)cc4)CC3)c(=O)[nH]2)cc1 | inconclusive: 17.8 µM [inhibitor, partial curve, poor fit] | 
8 | COc1ccc(CC(=O)NC2CCCc3c2[nH]c2c(Cl)cccc32)cc1OC (stereo unspecified) | inconclusive: 12.6 µM [inhibitor, partial curve, poor fit] | 
9 | CCN(CCCNC(=O)c1cc2c(=O)[nH]c3ccc(C)cc3c2s1)c1ccc(C)cc1 | inconclusive: 11.2 µM [inhibitor, single point] | 
10 | CCCCCn1c(=O)[nH]c2cc(C(=O)NCc3ccc(OC)cc3)ccc2c1=O | inconclusive: 1.58 µM [inhibitor, full curve] | 
11 | O=C(Nc1cccc(C(F)(F)F)c1)N[C@H]1CO[C@H]2[C@@H]1OC[C@H]2OC(=O)Nc1ccccc1 | inactive | 
12 | O=C(c1ccccc1Cl)N1CCC(c2nn(-c3ccccc3)c(=O)[nH]2)CC1 | inconclusive: 11.2 µM [inhibitor, single point] | 
13 | CNC(=O)C(C)N(C)C(=O)c1coc(CN2CCN(c3ccccc3F)CC2)n1 (stereo unspecified) | inactive | 
14 | CCn1cc(C(=O)N2CCC(C3CCN(C(=O)NC)CC3)C2)cn1 (stereo unspecified) | inactive | 
15 | CC1(c2noc(-c3ccccc3)n2)CCN(C(=O)C2CCN(C(=O)c3ccc(=O)[nH]c3)CC2)CC1 | inactive | 
16 | O=C(Cc1cccc(F)c1)N1CCC2(CC1)NC(=O)N(c1cccc(F)c1)N2 | inconclusive: 10 µM [inhibitor, single point] | 
17 | OC1(CN2CCCCC2)CCN(c2cccc(C(F)(F)F)n2)C1 (stereo unspecified) | inconclusive: 10 µM [inhibitor, partial curve, poor fit] | 
18 | CCCCN1CCN(C(=O)[C@@]23CCCC[C@H]2N(CCC(C)C)C(=O)CC3)CC1 | inconclusive: 3.16 µM [inhibitor, partial curve] | 
19 | CC1(C)C[C@H](NCC2CCCCC2)[C@@]2(CCC(=O)N3CCCC3)CC[C@](C)(O)C[C@@H]12 | inconclusive: 17.8 µM [inhibitor, partial curve, poor fit] | 
20 | CCC(CO)Nc1ncnc2c1cnn2-c1ccc(C)cc1 (stereo unspecified) | inconclusive: 11.2 µM [inhibitor, partial curve, poor fit] | 
21 | Cc1ccccc1C(=O)NC1CCN(c2cc(-c3cccs3)[nH]n2)C1 (stereo unspecified) | inconclusive: 17.8 µM [inhibitor, single point] | 
22 | CCOCCCn1c(SCC(=O)Nc2cccc(OC)c2)nc2ccccc2c1=O | inconclusive: 12.6 µM [inhibitor, single point] | 

Row | Structure (SMILES) | Potency | activity, negative = inhibition
23 | COCCn1c(C)cnc1CC1CCCN(C(=O)c2ccnn2C)C1 (stereo unspecified) | inactive | 
24 | O=C(c1cncc(N2CCCC(CCc3cccc(F)c3)C2)n1)N1CCCCC1 (stereo unspecified) | active: 11.2 µM | 
25 | O=C(NCc1cccs1)C1CCN(C(=O)N2CCOc3ccccc32)CC1 | inconclusive: 20 µM [inhibitor, single point] | 
26 | CCOc1ccc(C(=O)N2CCC3(CC2)C(=O)N(C)c2ccccc23)cc1OCC | active: 12.6 µM | 
27 | O=C(C1CC1)N1CCN(Cc2ccccc2)CC(O)C1 (stereo unspecified) | inactive | 
28 | Cc1noc(C)c1S(=O)(=O)N(CC(=O)NCc1ccccc1Cl)c1ccc(C(C)C)cc1 | inconclusive: 17.8 µM [inhibitor, single point] | 
29 | CCOc1ccc(C(=O)Nc2ccc(S(=O)(=O)N3CCCCC3c3cccnc3)cc2)cc1 (stereo unspecified) | inconclusive: 17.8 µM [inhibitor, single point] | 
30 | CCOc1ccccc1NC(=O)N1c2ccccc2CC1c1nc(C2CC2)no1 (stereo unspecified) |  | inactive: 93.1% [at 5.79 µM]
31 | Cc1cc2nc3n(c(=O)c2n1CC(=O)Nc1ccccc1C(C)C)CCCCC3 | inconclusive: 1.26 µM [inhibitor, partial curve] | 
32 | Cc1ccc(C)c(S(=O)(=O)NCC(c2ccco2)S(=O)(=O)c2ccc(F)cc2)c1 (stereo unspecified) | inconclusive: 7.94 µM [inhibitor, single point] | 
33 | CCC1CCCCN1C(=O)c1nn(-c2ccc(C)cc2)c(=O)c2c1c1ccccc1n2C (stereo unspecified) | inactive | 
34 | c1ccc(CN2C[C@@H]3C[C@H]2CN3Cc2cn(-c3ccccc3)nn2)cc1 | inconclusive: 8.91 µM [inhibitor, single point] | 
35 | CCNC(=O)C1C(c2cccc(NC(=O)c3ccccc3)c2)OC(=O)N1Cc1ccc(C)cc1 (stereo unspecified) | inconclusive: 2.24 µM [inhibitor, single point] | 
36 | COc1cccc(-c2cc3c(=O)n(CCNC(=O)COc4ccc(F)cc4)ccn3n2)c1 | inconclusive: 0.708 µM [inhibitor, full curve, poor fit] | 
37 | O=C1NC2(CCN(C(=O)c3cccnc3)C2)OCc2ccccc21 (stereo unspecified) | inactive | 
38 | CCc1ccc(-n2nc(C)c3c(C(=O)NCCc4ccc(OC)c(OC)c4)cc(C)nc32)cc1 | inconclusive: 11.2 µM [inhibitor, single point] | 
39 | CC(=O)NCCNC(=O)C1CCCN(S(=O)(=O)c2ccccc2)CCC(=O)NCC1 (stereo unspecified) | inactive | 
40 | Cc1nc2ccc(C(=O)N3CCSCC3)cc2nc1C | inactive | 
41 | COc1ccc(C2C(=O)N(C3CCCCC3)CC(=O)N2Cc2ccccc2Cl)cc1OC (stereo unspecified) | inconclusive: 17.8 µM [inhibitor, single point] | 
42 | O=C(O)CCn1ncc2cc(OCC3CCN(C(=O)c4cc(F)ccc4Cl)CC3)ccc21 | inactive | 
43 | Cn1ncc(N2CCC(C(=O)Nc3ccccc3)C2)cc1=O (stereo unspecified) | inactive | 
44 | Cc1ccc(N(CC(=O)N2CCN(c3ccc(Cl)cc3)CC2)S(=O)(=O)c2c(C)noc2C)cc1 | inconclusive: 20 µM [inhibitor, single point] | 

Row | Structure (SMILES) | Potency | activity, negative = inhibition
45 | Cc1nc(-c2cccs2)cc([C@H]2CN3CC[C@H]2C[C@@H]3CNC(=O)c2ccc(C(F)(F)F)cc2)n1 | inconclusive: 3.98 µM [inhibitor, single point] | 
46 | Cc1ccc(CNC(=O)N2CCCC(CN3CCC(C)CC3)CC2)cc1 (stereo unspecified) | inconclusive: 17.8 µM [inhibitor, single point] | 
47 | Cn1c(=O)c2ccnn2c2ccc(C(=O)NCCN3CCC(N4CCCCC4)CC3)cc21 | inconclusive: 0.501 µM [inhibitor, full curve, poor fit] | 
48 | Cc1noc([C@@H]2CN(C3CCSCC3)C[C@H]2CO)n1 | inconclusive: 1.58 µM [inhibitor, full curve] | 
49 | COc1cc(OC)cc(C(=O)N2CCCC3(C2)Nc2cccnc2NC3=NC2CCCC2)c1 (stereo unspecified) | inconclusive: 1 µM [inhibitor, partial curve, poor fit] | 
50 | CC(C)N1C[C@@H]2C[C@H]1C(=O)N(Cc1ccc(OC(F)(F)F)cc1)c1ccccc1O2 | active: 11.2 µM | 
51 | O=C1[C@@H]2C[C@@H](CN2CC2CC2)Oc2ccccc2N1Cc1cccnc1 | inactive | 
52 | COc1ccc(-c2cc(C[C@H]3CNCC[C@H]3CC(=O)Nc3nccs3)no2)cc1 | inactive | 
53 | CN1CC(=O)N(c2ccccc2F)Cc2c1ncnc2N1CCCCC1 | inactive | 
54 | COC[C@@H]1CN(C(=O)c2cc3ccccc3[nH]2)C[C@H]1c1ccccn1 | inconclusive: 8.91 µM [inhibitor, partial curve] | 
55 | Cc1ccsc1CN1CCCCCCN(C)C(=O)[C@@H]2CCC[C@@H]21 | inconclusive: 2 µM [inhibitor, partial curve, poor fit] | 
56 | CCOc1ccc(Nc2oc(-c3ccc(COc4ccccc4C)o3)nc2C#N)cc1 | inconclusive: 17.8 µM [inhibitor, single point] | 
57 | Cc1nc(-c2cccc(F)c2)sc1CCNC(=O)c1ccc(F)c(F)c1 | inactive | 
58 | COc1cccc(Nc2ncc(-c3ccccc3OC)c3c2OCC3)c1 | inconclusive: 31.6 µM [inhibitor, single point] | 
59 | CN1c2cccnc2CN(Cc2ccc(Cl)cc2)CC[C@H]1CO | inconclusive: 31.6 µM [inhibitor, single point] | 
60 | COc1ccccc1N1CCN(C(=O)[C@H]2CN3CCC2C[C@@H]3Cn2cc(C(C)(C)C)nn2)CC1 (stereo partly specified) | inactive | 
61 | Cc1ccc(CNC(=O)CN2C(=O)C3(SCC(=O)N3c3cc(C)cc(C)c3)c3ccccc32)cc1 (stereo unspecified) | inconclusive: 11.2 µM [inhibitor, single point] | 
62 | COc1ccc(CNCCSc2nnnn2-c2ccccc2)c(OC)c1 | inconclusive: 8.91 µM [inhibitor, partial curve, poor fit] | 
63 | CC(=O)N1CC2(CCN(Cc3cccc(C(N)=O)c3)CC2)Cc2ccccc21 | inactive | 
64 | COc1ccc(S(=O)(=O)Nc2ccc(C)n(CC(=O)NC(C)C)c2=O)cc1 | inactive | 
65 | N#Cc1ccc2nc([C@H]3CCN(Cc4ccc(F)c(F)c4)C3)[nH]c2c1 | inconclusive: 7.08 µM [inhibitor, partial curve, poor fit] | 
66 | c1ccc(-c2noc(-c3cncnc3NCC3CCCCC3)n2)cc1 | inconclusive: 2.24 µM [inhibitor, single point] | 

— PubChem BioAssay AID1347417 (National Center for Advancing Translational Sciences (NCATS), 2020)
